These results are taken from the supplement of paper PMC12217912.

This is one part of the list. The full chains were built here from the parent and the listed change. Values near 0.05 are background.

Sequences and labels used below:
B1: TEV protease; numbered along this chain (parent)
chain: MGESLFKGPRDYNPISSSICHLTNESDGHTTSLYGIGFGPFIITNKHLFRRNNGTLVVQSLHGVFKVKDTTTLQQHLVDGRDMIIIRMPKDFPPFPQKLKFREPQREERICLVTTNFQTKSMSSMVSDTSCTFPSGDGIFWKHWIQTKDGQCGSPLVSTRDGFIVGIHSASNFTNTNNYFTSVPKNFMELLTNQEAQQWVSGWRLNADSVLWGGHKVFMVKPEEPFQPVKEATQL

Variants of B1 are the subject of the test. The test can be described thus: raw area under fraction-flipped curve 0-4 h after induction (AUC4h, not background-subtracted), DNA-recorder readout of cleavage of the substrate (dimensionless); higher = more cleavage of the substrate by the protease variant. Particulars: temperature: 34 °C; time window: 0-4 h after rhamnose induction. How it is done: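 In vivo DNA recorder in E. coli TOP10(DE3) ΔrhaA at 34 °C. Each TEVp single-site mutant (parent TEVp 0) is paired with a single-site variant of the 7-mer TEVs (canonical ENLYFQ|S). The substrate sits between flexible linkers in a Bxb1-sfGFP-TEVs-SsrA fusion, so cleavage stabilises Bxb1 and speeds flipping of a recombination array, read by NGS. The value is the raw area under the fraction-flipped curve over 0-4 h after rhamnose induction (AUC4h), with ≥20 reads per time point. It is not background-subtracted; inactive controls average about 0.047.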
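Also: Bxb1 expression induced with 0.2% (w/v) L-rhamnose at OD600 near 0.5, cultures sampled hourly, flipped fraction per protease–substrate barcode pair counted by paired-end Illumina sequencing.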

As to MGESLFKGPRDYNPISSSICHLTNESDGHTTSLYGIGFGPFILTNKHLFRRNNGTLVVQSLHGVFKVKDTTTLQQHLVDGRDMIIIRMPKDFPPFPQKLKFREPQREERICLVTTNFQTKSMSSMVSDTSCTFPSGDGIFWKHWIQTKDGQCGSPLVSTRDGFIVGIHSASNFTNTNNYFTSVPKNFMELLTNQEAQQWVSGWRLNADSVLWGGHKVFMVKPEEPFQPVKEATQL [I43L], the “area with substrate ENLYAQS” value worked out at 0.0542, the “area with substrate ENLYDQS” value is 0.0638, the “area with substrate ENLYEQS” value worked out at 0.0792 and the “area with substrate ENLYGQS” value worked out at 0.0658. Besides, the “area with substrate ENLYIQS” value came to 0.133, the “area with substrate ENLYKQS” value came to 0.0521, the “area with substrate ENLYMQS” value came to 0.0892 and the “area with substrate ENLYNQS” value was determined as 0.0779. Moreover, the “area with substrate ENLYPQS” value came to 0.0656, the “area with substrate ENLYQQS” value was 0.061, the “area with substrate ENLYRQS” value worked out at 0.0828 and the “area with substrate ENLYSQS” value amounted to 0.0604. The “area with substrate ENLYVQS” value worked out at 0.0955, the “area with substrate ENLYWQS” value came to 0.0666 and the “area with substrate ENLYYQS” value was determined as 0.0782.
On to MGESLFKGPRDYNPISSSICHLTNESDGHTTSLYGIGFGPFIITTKHLFRRNNGTLVVQSLHGVFKVKDTTTLQQHLVDGRDMIIIRMPKDFPPFPQKLKFREPQREERICLVTTNFQTKSMSSMVSDTSCTFPSGDGIFWKHWIQTKDGQCGSPLVSTRDGFIVGIHSASNFTNTNNYFTSVPKNFMELLTNQEAQQWVSGWRLNADSVLWGGHKVFMVKPEEPFQPVKEATQL [N45T], for which the “area with substrate ENLYAQS” value was determined as 0.0633, the “area with substrate ENLYCQS” value was 0.087, the “area with substrate ENLYDQS” value worked out at 0.0633 and the “area with substrate ENLYEQS” value worked out at 0.0689. The “area with substrate ENLYGQS” value is 0.0552, the “area with substrate ENLYHQS” value was 0.0567, the “area with substrate ENLYIQS” value worked out at 0.0719 and the “area with substrate ENLYKQS” value is 0.0333. In addition, the “area with substrate ENLYLQS” value stood at 0.0685, the “area with substrate ENLYMQS” value was 0.0786, the “area with substrate ENLYNQS” value turned out to be 0.0627 and the “area with substrate ENLYPQS” value was found to be 0.0564. Further, the “area with substrate ENLYQQS” value is 0.0713, the “area with substrate ENLYRQS” value is 0.0522, the “area with substrate ENLYSQS” value is 0.0676 and the “area with substrate ENLYTQS” value was 0.0697. For the same variant, the “area with substrate ENLYVQS” value came out at 0.104, the “area with substrate ENLYWQS” value is 0.0599 and the “area with substrate ENLYYQS” value amounted to 0.0475.
Regarding MGESLFKGPRDYNPISSSICHLTNESDGHTTSLYGIGFGPFIITNKHLFRRNNQTLVVQSLHGVFKVKDTTTLQQHLVDGRDMIIIRMPKDFPPFPQKLKFREPQREERICLVTTNFQTKSMSSMVSDTSCTFPSGDGIFWKHWIQTKDGQCGSPLVSTRDGFIVGIHSASNFTNTNNYFTSVPKNFMELLTNQEAQQWVSGWRLNADSVLWGGHKVFMVKPEEPFQPVKEATQL [G54Q], the “area with substrate ENLYAQS” value was found to be 0.0472, the “area with substrate ENLYCQS” value came to 0.0578, the “area with substrate ENLYDQS” value was determined as 0.0796 and the “area with substrate ENLYEQS” value came to 0.0599. Moreover, the “area with substrate ENLYGQS” value turned out to be 0.0676, the “area with substrate ENLYHQS” value stood at 0.0644, the “area with substrate ENLYIQS” value is 0.0748 and the “area with substrate ENLYKQS” value came out at 0.0509. Moreover, the “area with substrate ENLYMQS” value stood at 0.056, the “area with substrate ENLYNQS” value is 0.0627, the “area with substrate ENLYPQS” value is 0.0529 and the “area with substrate ENLYQQS” value came to 0.055. In addition, the “area with substrate ENLYRQS” value was found to be 0.0595, the “area with substrate ENLYSQS” value amounted to 0.0875, the “area with substrate ENLYTQS” value was 0.0587 and the “area with substrate ENLYVQS” value was found to be 0.076. Further, the “area with substrate ENLYWQS” value is 0.0674 and the “area with substrate ENLYYQS” value was 0.0543.
As for MGESLFKGPRDYNPISSSICHLTNESDGHTTSLYGIGFGPFIITNKHLFRRNCGTLVVQSLHGVFKVKDTTTLQQHLVDGRDMIIIRMPKDFPPFPQKLKFREPQREERICLVTTNFQTKSMSSMVSDTSCTFPSGDGIFWKHWIQTKDGQCGSPLVSTRDGFIVGIHSASNFTNTNNYFTSVPKNFMELLTNQEAQQWVSGWRLNADSVLWGGHKVFMVKPEEPFQPVKEATQL [N53C], the “area with substrate ENLYAQS” value came out at 0.0794, the “area with substrate ENLYCQS” value came to 0.0822, the “area with substrate ENLYDQS” value worked out at 0.0514 and the “area with substrate ENLYEQS” value came to 0.0607. The “area with substrate ENLYGQS” value amounted to 0.0687, the “area with substrate ENLYHQS” value amounted to 0.0652, the “area with substrate ENLYIQS” value worked out at 0.0992 and the “area with substrate ENLYKQS” value was 0.0597. Moreover, the “area with substrate ENLYLQS” value was determined as 0.0585, the “area with substrate ENLYNQS” value was found to be 0.0834, the “area with substrate ENLYPQS” value came to 0.0642 and the “area with substrate ENLYSQS” value was found to be 0.0689. Further, the “area with substrate ENLYVQS” value is 0.113 and the “area with substrate ENLYYQS” value is 0.083.
Turning to MGESLFKGPRDYNPISSSICHLTNESDGHTTSLYGIGFGPFIITNKHLFRRNMGTLVVQSLHGVFKVKDTTTLQQHLVDGRDMIIIRMPKDFPPFPQKLKFREPQREERICLVTTNFQTKSMSSMVSDTSCTFPSGDGIFWKHWIQTKDGQCGSPLVSTRDGFIVGIHSASNFTNTNNYFTSVPKNFMELLTNQEAQQWVSGWRLNADSVLWGGHKVFMVKPEEPFQPVKEATQL [N53M], the “area with substrate ENLYAQS” value was found to be 0.0801, the “area with substrate ENLYCQS” value is 0.0533, the “area with substrate ENLYDQS” value is 0.0581 and the “area with substrate ENLYEQS” value was determined as 0.076. Besides, the “area with substrate ENLYHQS” value turned out to be 0.0664, the “area with substrate ENLYIQS” value is 0.118, the “area with substrate ENLYKQS” value is 0.0558 and the “area with substrate ENLYLQS” value amounted to 0.0816. Also, the “area with substrate ENLYMQS” value was determined as 0.0672, the “area with substrate ENLYNQS” value turned out to be 0.0625, the “area with substrate ENLYQQS” value amounted to 0.0565 and the “area with substrate ENLYRQS” value turned out to be 0.061. The “area with substrate ENLYSQS” value amounted to 0.0375 and the “area with substrate ENLYWQS” value came to 0.057.
For the variant MGESLFKGPRDYNPISSSICHLTNESDGHTTSLYGIGFGPFIITNKHLFRRNVGTLVVQSLHGVFKVKDTTTLQQHLVDGRDMIIIRMPKDFPPFPQKLKFREPQREERICLVTTNFQTKSMSSMVSDTSCTFPSGDGIFWKHWIQTKDGQCGSPLVSTRDGFIVGIHSASNFTNTNNYFTSVPKNFMELLTNQEAQQWVSGWRLNADSVLWGGHKVFMVKPEEPFQPVKEATQL [N53V], the “area with substrate ENLYAQS” value is 0.0636, the “area with substrate ENLYDQS” value stood at 0.061, the “area with substrate ENLYEQS” value was 0.0532 and the “area with substrate ENLYGQS” value is 0.0655. Also, the “area with substrate ENLYHQS” value came out at 0.0567, the “area with substrate ENLYIQS” value was determined as 0.101, the “area with substrate ENLYKQS” value stood at 0.0521 and the “area with substrate ENLYMQS” value is 0.0663. Moreover, the “area with substrate ENLYNQS” value was 0.0693, the “area with substrate ENLYPQS” value turned out to be 0.0639, the “area with substrate ENLYQQS” value amounted to 0.0738 and the “area with substrate ENLYRQS” value was 0.0672. Moreover, the “area with substrate ENLYSQS” value was 0.0815, the “area with substrate ENLYVQS” value was 0.0935 and the “area with substrate ENLYYQS” value stood at 0.0383.
As to MGESLFKGPRDYNPISSSICHLTNESDGHTTSLYGIGFGPFIITNKHLFRRNSGTLVVQSLHGVFKVKDTTTLQQHLVDGRDMIIIRMPKDFPPFPQKLKFREPQREERICLVTTNFQTKSMSSMVSDTSCTFPSGDGIFWKHWIQTKDGQCGSPLVSTRDGFIVGIHSASNFTNTNNYFTSVPKNFMELLTNQEAQQWVSGWRLNADSVLWGGHKVFMVKPEEPFQPVKEATQL [N53S], the “area with substrate ENLYAQS” value was found to be 0.0881, the “area with substrate ENLYCQS” value was found to be 0.0854, the “area with substrate ENLYDQS” value is 0.052 and the “area with substrate ENLYEQS” value came to 0.0671. The “area with substrate ENLYGQS” value came to 0.0774, the “area with substrate ENLYHQS” value amounted to 0.0805, the “area with substrate ENLYIQS” value is 0.122 and the “area with substrate ENLYNQS” value turned out to be 0.0729. In addition, the “area with substrate ENLYPQS” value is 0.0747, the “area with substrate ENLYQQS” value amounted to 0.0601, the “area with substrate ENLYRQS” value was 0.0585 and the “area with substrate ENLYSQS” value was determined as 0.074. In addition, the “area with substrate ENLYTQS” value is 0.0783, the “area with substrate ENLYVQS” value was 0.108, the “area with substrate ENLYWQS” value turned out to be 0.089 and the “area with substrate ENLYYQS” value was 0.07.
For the variant MGESLFKGPRDYNPISSSICHLTNESDGHTTSLYGIGFGPFIITNAHLFRRNNGTLVVQSLHGVFKVKDTTTLQQHLVDGRDMIIIRMPKDFPPFPQKLKFREPQREERICLVTTNFQTKSMSSMVSDTSCTFPSGDGIFWKHWIQTKDGQCGSPLVSTRDGFIVGIHSASNFTNTNNYFTSVPKNFMELLTNQEAQQWVSGWRLNADSVLWGGHKVFMVKPEEPFQPVKEATQL [K46A], the “area with substrate ENLYAQS” value was found to be 0.0952, the “area with substrate ENLYCQS” value turned out to be 0.127, the “area with substrate ENLYDQS” value came out at 0.0593 and the “area with substrate ENLYEQS” value is 0.0779. The “area with substrate ENLYGQS” value is 0.0686, the “area with substrate ENLYHQS” value is 0.072, the “area with substrate ENLYKQS” value was 0.052 and the “area with substrate ENLYLQS” value was 0.0858. Besides, the “area with substrate ENLYMQS” value is 0.0648, the “area with substrate ENLYNQS” value was found to be 0.0808, the “area with substrate ENLYPQS” value was found to be 0.0705 and the “area with substrate ENLYQQS” value was 0.0795. Also, the “area with substrate ENLYRQS” value was found to be 0.0669, the “area with substrate ENLYTQS” value was 0.113 and the “area with substrate ENLYVQS” value was found to be 0.143.
For the variant MGESLFKGPRDYNPISSSICHLTNESDGHTTSLYGIGFGPFIITNMHLFRRNNGTLVVQSLHGVFKVKDTTTLQQHLVDGRDMIIIRMPKDFPPFPQKLKFREPQREERICLVTTNFQTKSMSSMVSDTSCTFPSGDGIFWKHWIQTKDGQCGSPLVSTRDGFIVGIHSASNFTNTNNYFTSVPKNFMELLTNQEAQQWVSGWRLNADSVLWGGHKVFMVKPEEPFQPVKEATQL [K46M], the “area with substrate ENLYAQS” value came out at 0.0754, the “area with substrate ENLYCQS” value is 0.0914, the “area with substrate ENLYDQS” value is 0.059 and the “area with substrate ENLYEQS” value was determined as 0.0663. The “area with substrate ENLYGQS” value was 0.0616, the “area with substrate ENLYHQS” value amounted to 0.063, the “area with substrate ENLYIQS” value was determined as 0.086 and the “area with substrate ENLYKQS” value stood at 0.0577. In addition, the “area with substrate ENLYLQS” value amounted to 0.0766, the “area with substrate ENLYNQS” value came to 0.0552, the “area with substrate ENLYPQS” value turned out to be 0.0638 and the “area with substrate ENLYQQS” value is 0.0132. Moreover, the “area with substrate ENLYRQS” value came out at 0.0613, the “area with substrate ENLYTQS” value amounted to 0.0737, the “area with substrate ENLYVQS” value stood at 0.11 and the “area with substrate ENLYYQS” value amounted to 0.0519.
